Experimental data published in article PMC4336329 (PLoS ONE, 2015).
The whole screen tested about 310,000 compounds, of which about 14,000 (4.5%) showed an effect of 50% or more. The effect is printed as a negative number. Some of the results follow.

molecular target: human ether-à-go-go-related gene (hERG) potassium channel (human, UniProt Q12809); experiment: primary screen, population patch clamp on CHO cells stably expressing hERG
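Also: peak tail current of the secondary pulse compared with the same well before compound.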

Chain of human ether-à-go-go-related gene (hERG) potassium channel (Q12809 whole entry, looked up): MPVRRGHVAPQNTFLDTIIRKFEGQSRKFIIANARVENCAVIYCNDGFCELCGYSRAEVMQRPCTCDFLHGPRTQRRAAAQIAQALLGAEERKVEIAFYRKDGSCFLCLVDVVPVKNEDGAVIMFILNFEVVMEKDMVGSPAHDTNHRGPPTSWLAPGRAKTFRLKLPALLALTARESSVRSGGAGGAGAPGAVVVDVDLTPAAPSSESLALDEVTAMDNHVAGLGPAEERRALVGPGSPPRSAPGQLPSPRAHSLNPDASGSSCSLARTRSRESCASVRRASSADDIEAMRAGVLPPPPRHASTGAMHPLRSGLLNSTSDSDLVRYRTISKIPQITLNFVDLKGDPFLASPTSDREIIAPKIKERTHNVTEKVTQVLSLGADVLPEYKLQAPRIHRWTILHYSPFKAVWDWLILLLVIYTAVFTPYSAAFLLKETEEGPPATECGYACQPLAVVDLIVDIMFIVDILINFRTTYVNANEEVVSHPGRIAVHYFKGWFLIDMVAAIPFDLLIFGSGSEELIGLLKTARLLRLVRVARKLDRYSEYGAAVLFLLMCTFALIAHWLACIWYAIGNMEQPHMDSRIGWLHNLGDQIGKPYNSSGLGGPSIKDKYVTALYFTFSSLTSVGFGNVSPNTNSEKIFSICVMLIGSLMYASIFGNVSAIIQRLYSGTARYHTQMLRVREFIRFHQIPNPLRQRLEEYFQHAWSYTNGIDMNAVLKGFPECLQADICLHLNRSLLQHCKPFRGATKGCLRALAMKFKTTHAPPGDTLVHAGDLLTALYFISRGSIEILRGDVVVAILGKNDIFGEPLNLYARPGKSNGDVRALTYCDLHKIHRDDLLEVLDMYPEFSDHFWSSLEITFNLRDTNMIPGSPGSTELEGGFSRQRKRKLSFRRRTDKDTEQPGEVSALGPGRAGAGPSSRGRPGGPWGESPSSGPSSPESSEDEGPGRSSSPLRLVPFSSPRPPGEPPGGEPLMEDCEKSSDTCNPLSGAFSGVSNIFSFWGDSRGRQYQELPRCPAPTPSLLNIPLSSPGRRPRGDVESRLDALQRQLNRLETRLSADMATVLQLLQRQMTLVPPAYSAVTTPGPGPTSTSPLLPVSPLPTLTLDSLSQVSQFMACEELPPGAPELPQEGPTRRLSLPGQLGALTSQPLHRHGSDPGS

| SMILES | hERG current change (%, negative = inhibition) at 10uM [%] |
| --- | --- |
| CN(C)S(=O)(=O)c1cccc(NC(=O)COC(=O)CCC(=O)c2cccs2)c1 | 1.41 |
| O=C(CNCC1CCCO1)N1CCCCCC1.O=C(O)C(=O)O (stereo not shown) | 12.4 |
| Cc1nn(-c2ccccc2)c2c1C1(C(=O)N(C)c3ccccc31)N(c1ccccc1)C(=O)N2 (stereo not shown) | -8.05 |
| CCOC(=O)CNC(=O)CSc1nnc(NC(=O)c2ccc(S(=O)(=O)N3CCOCC3)cc2)s1 | 16.8 |
| Cc1nn(Cc2ccc([N+](=O)[O-])cc2)c(=O)n1-c1cccc(Cl)c1 | -15.6 |
| CC(C)(C)c1ccc(S(=O)(=O)NCC(=O)N2CCN(Cc3ccccc3)CC2)cc1 | -2.46 |
| CCOC(=O)N1CCN(C(=O)CCn2c(=O)[nH]c3ccsc3c2=O)CC1 | 12.7 |
| Nc1nc(-c2ccccc2)cc(C(F)(F)F)n1 | 4.51 |
| COc1ccc(CN2CCC(C(=O)Nc3ccc(Oc4cccnc4)cc3)CC2)c(C)c1C | -36.8 |
| CN1CCN(S(=O)(=O)c2cc(Cl)c(Cl)cc2Cl)CC1 | 0.0247 |
| COc1cc(C)c(C(=O)Oc2cc(C)c(C(=O)O)c(O)c2)c(O)c1 | 11.5 |
| O=C(CN1CCN(c2ccccn2)CC1)NCc1cccs1 | -26.2 |
| O=C(NCC1(c2ccccc2)CCOCC1)c1cccs1 | 13.9 |
| CC(=O)c1ccc(-c2ccc(/C=C(/Sc3n[nH]c(C)n3)C(=O)O)o2)cc1 | -42.7 |
| O=C(NCc1ccco1)c1ccc(Cn2c(=O)c3ccccc3n(Cc3cccc(Cl)c3)c2=O)cc1 | -5.37 |
| Cc1ccc(N2C(=O)c3ccccc3C2=O)cc1C | 12.7 |
| CCn1c(SCC(=O)NC(C)C(C)C)nc2cc(S(=O)(=O)N3CCOCC3)ccc21 (stereo not shown) | 3.83 |
| COc1ccc(-c2csc3ncnc(N4CCN(c5cccc(Cl)c5)CC4)c23)cc1 | 4.71 |
| O=C1CCCN1CCCNS(=O)(=O)c1ccc(F)cc1F | 8.77 |
| Br.CC(Cc1ccc(O)cc1)NCC(O)c1cc(O)cc(O)c1 (stereo not shown) | 8.75 |
| COc1ccc(/C=N/NC(=O)c2cccc([N+](=O)[O-])c2)cc1OS(=O)(=O)c1ccc(C)cc1 | -16.1 |
| Cc1ccsc1/C=C1\CCC(C2CCCC2)C1=O (stereo not shown) | 6.21 |

| SMILES | hERG current change (%, negative = inhibition) at 10uM [%] |
| --- | --- |
| CCC(C)(C(=O)NC1CCCCC1)N(Cc1ccco1)C(=O)c1ccc2c(c1)OCO2 (stereo not shown) | -6 |
| Cc1ccc(S(=O)(=O)N(C)CCCC(=O)N2CCCCC2)cc1 | -4.24 |
| O=C(NC(Nc1ncc(S(=O)(=O)c2ccc([N+](=O)[O-])cc2)s1)(C(F)(F)F)C(F)(F)F)c1ccc(Cl)cc1 | -11.6 |
| O=C(COc1ccc2c3c(c(=O)oc2c1)CCC3)NC(Cc1ccc(Cl)cc1)C(=O)O (stereo not shown) | 3.55 |
| Cc1ccccc1Cn1c(=N)n(CC(O)c2ccco2)c2ccccc21.Cl (stereo not shown) | -59.8 |
| CC(C)CC(c1nnnn1CCc1ccccc1)N1CCC(C(N)=O)CC1 (stereo not shown) | -1.46 |
| Cc1ccc(C)c(Nc2nc(N)c3ccccc3n2)c1.Cl | -24.7 |
| COC(=O)CCCCCCCCC(O)CN(C)C (stereo not shown) | 21.8 |
| CCN1C(=O)[C@H]2[C@@H](c3ccc(-c4ccc(C(C)=O)cc4)cc3)N3CCCC[C@@]3(C(=O)OC)[C@H]2C1=O.O=C(O)C(F)(F)F | 5.59 |
| Cc1ccc(C)c(N2CCN(C(=O)c3cc4c(C)nc5ccccc5c4o3)CC2)c1 | 0.596 |
| CN(C)CCCN1CC(=O)N2[C@@H](Cc3c([nH]c4ccccc34)C2(C)C)C1=O | 13.4 |
| CCC(Cc1ccccc1)NC(=O)C1CCN(S(=O)(=O)c2ccc3c(c2)CC(C)N3C(C)=O)CC1 (stereo not shown) | 1.02 |
| CC(=O)Nc1ccc(NC(=O)C2(C)CC2(Cl)Cl)cc1 (stereo not shown) | 13 |
| N#CCCN(C(=O)c1cc2c(s1)-c1ccccc1S(=O)(=O)C2)c1ccccc1 | -9.63 |
| Cc1ccc(S(=O)(=O)NCC(=O)N(CC2CCCO2)C(C(=O)NCC2CCCO2)C(C)C)cc1 (stereo not shown) | 14.4 |
| Cc1ccc[n+](CC(=O)Nc2cccc(Cl)c2)c1.[Cl-] | 18.4 |
| CC(OC(=O)CCc1ccccc1)C(=O)Nc1ccc(Cl)cn1 (stereo not shown) | -26.2 |
| O=C(/C=C/c1ccc(Cl)c(Cl)c1)N1CCOCC1 | -1.3 |
| Cc1cccc(C(=O)NNC(=O)c2ccc(-c3ccccc3)cc2)c1 | 15.1 |
| Cc1occc1C(=O)Nc1nccs1 | 11.5 |
| COc1ccc(C2(C)NC(=O)N(CC(=O)c3cc(C)n(C4CC4)c3C)C2=O)cc1OC (stereo not shown) | 2.99 |
| CN(CC(=O)Nc1ccccc1N1CCOCC1)S(=O)(=O)c1ccc(F)cc1 | -37.6 |

| SMILES | hERG current change (%, negative = inhibition) at 10uM [%] |
| --- | --- |
| Cc1cc(C)n(-c2nc(Nc3ccccc3)nc(-n3nc(C)cc3C)n2)n1 | 15.6 |
| Cc1nc(Cl)c(C(=O)NCCC(C)C)c(C)c1[N+](=O)[O-] | -16.6 |
| COC(=O)C1=CNC=C(C(=O)OC)C1c1cccc(OC)c1 | 4.39 |
| Cc1ccc(C)n1NC(=O)c1ccccc1O | 0.839 |
| C=CCSc1ncc(C(=O)OCC)c(N)n1 | -11.5 |
| COC(=O)N(c1ccccc1)P(=O)(Oc1ccccc1)Oc1ccccc1 | -1.67 |
| O=C(CC1(O)C(=O)Nc2ccccc21)c1cccc(Br)c1 (stereo not shown) | -0.815 |
| O=C(CN1C(=O)c2ccccc2C1=O)OC(C(=O)c1ccc(Cl)cc1)c1ccccc1 (stereo not shown) | 9.99 |
| CCC/C(O)=C1\C(=O)CC(C)(C)CC1=Nc1cccc([N+](=O)[O-])c1 | -30.1 |
| Oc1ccc(Br)cc1/C=N/Nc1ncc(-c2ccccc2)cn1 | 38.9 |
| CCn1nc(NS(=O)(=O)c2ccccc2[N+](=O)[O-])c2cc3cccc(C)c3nc21 | -5.17 |
| COc1ccccc1N(Cc1ccccc1)S(=O)(=O)c1cc(C(=O)O)ccc1Cl | 16.8 |
| CCc1nnc(NS(=O)(=O)c2ccc(N=Cc3c(C)[nH]n(-c4cccc(Cl)c4)c3=O)cc2)s1 | 10.4 |
| COc1ccc(-c2nc(C#N)c(NCCc3ccccc3)o2)cc1OC | -11.1 |
| COc1cc(S(=O)(=O)N2CCN(C(=O)c3ccccc3)CC2)c(OC)cc1Br | -20.3 |
| CN1C(=O)N(CC(=O)N2CCN(c3ccccc3F)CC2)C(=O)C12CCCCC2 | 8.78 |
| Oc1c(C=Nc2ccc(Cl)cn2)sc2ccccc12 | 5.25 |
| Cn1c(=O)c(=O)n(C)c2cc(S(=O)(=O)NCCc3ccccc3)ccc21 | -37.4 |
| Cc1cccc(NC(=S)NC2CC3CCCC(C2)N3CC(C)C)c1C (stereo not shown) | -23.4 |
| CSCCC(NC(=O)c1ccco1)C(=O)OCC(=O)Nc1sccc1C#N (stereo not shown) | -0.514 |
| COc1ccc(NC(=O)Nc2sc(NS(=O)(=O)c3ccccc3)nc2C)cc1 | 32.2 |
| Cn1c(=O)c(-[n+]2ccccc2)c([O-])c2ccccc21 | 5.51 |

| SMILES | hERG current change (%, negative = inhibition) at 10uM [%] |
| --- | --- |
| CC1(c2ccccc2)O[C@@H]2C[C@H]3[C@@H]4CCC5=CC(=O)C=C[C@]5(C)[C@@]4(F)[C@@H](O)C[C@]3(C)[C@]2(C(=O)CO)O1 (stereo partly shown) | -78.6 |
| CC(=O)c1ccc(NC(=O)C(C)OC(=O)C2CC(=O)N(c3ccc4c(c3)OCCO4)C2)cc1 (stereo not shown) | 5.57 |
| CCN(CC)C(=O)CSc1nnc2c3ccccc3n(C)c2n1 | -6.44 |
| COCCCNc1nnc(Cc2ccccc2)c2ccccc12 | -31.4 |
| COc1ccc(-n2c(=O)c3c4c(sc3n(CC(=O)NCc3ccco3)c2=O)CCC4)c(OC)c1 | -4.75 |
| CC(=O)COc1ccc2cc(-c3ccccc3)c(=O)oc2c1 | 8.02 |
| Cc1nc(SCC(=O)O)c(C#N)c(-c2ccco2)c1C(=O)N(C)C | 8.55 |
| COc1ccccc1NC(=O)CSc1nc(O)cc(=O)[nH]1 | 11.9 |
| CC1(C)CC(=O)C=C(c2cc3ccccc3s2)C1 | 5.03 |
| CSc1nc(Oc2ccc(C)cc2)cc(C(F)(F)F)n1 | 15 |
| O=C(COC(=O)c1ccc(Br)o1)NCc1ccc(F)cc1 | 9.06 |
| C=CCSc1nnc(NC(=O)CSc2nnc(C)s2)s1 | -8.93 |
| CN1C(=O)/C(=C2\SC(=S)N(NC(=O)c3cccnc3)C2=O)c2ccccc21 | 12.8 |
| COc1ccccc1C1C=C(c2ccc(Cl)cc2)Nc2nc(NS(C)(=O)=O)nn21 (stereo not shown) | -1.88 |
| CC(=O)Nc1ccccc1OC(=O)N(C)C | 2.41 |
| Cc1ccc(S(=O)(=O)CCC(=O)OC(C)C(=O)Nc2ccc(N3CCOCC3)cc2)cc1 (stereo not shown) | 11 |
| O=C(CSc1nnc(Cc2ccccc2)o1)NCc1ccco1 | 28 |
| O=c1c2ccccc2nc(COc2ccccc2)n1/N=C/c1ccc(O)c(O)c1 | -7.78 |
| COc1ccc(S(=O)(=O)N2CCC(C(=O)NCCc3ccccc3)CC2)cc1OC | -17 |
